Reference: PubChem BioAssay AID504845 (National Center for Advancing Translational Sciences (NCATS), 2011)
Hit rate of the full screen: of about 390,000 compounds, about 150 (0.038%) were called active. Inconclusive means that the source gave no clear call. Such entries were picked first, then a sample of the others. Calls come from the whole dose curve; as a rule, active = well fitted inhibition curve with a large enough effect; inconclusive = small, poorly fitted or top-dose-only effect; inactive = no such curve, though single readings can be large or run the other way. Potencies beside an inconclusive call are fits to weak or partial responses and may not hold up.
% is set by controls: 0 for no effect and ±100 for the full control effect; potency is the fitted concentration of half-maximal effect; tags give direction and shape of the fitted curve.
Note: nearly all actives have a fitted effect of over 75% in size.

The compounds below were run against Regulator of G-protein signaling 4 (Homo sapiens) (UniProt P49798) (assay: Inhibitors of Regulator of G Protein Signaling (RGS) 4: qHTS). Conditions: Transcreener GDP fluorescence polarization, RGS4-accelerated GTP hydrolysis; series mostly up to 114 µM; activity change, negative = inhibition: at the top concentration.
Chain of UniProt P49798 (P49798 whole entry, looked up): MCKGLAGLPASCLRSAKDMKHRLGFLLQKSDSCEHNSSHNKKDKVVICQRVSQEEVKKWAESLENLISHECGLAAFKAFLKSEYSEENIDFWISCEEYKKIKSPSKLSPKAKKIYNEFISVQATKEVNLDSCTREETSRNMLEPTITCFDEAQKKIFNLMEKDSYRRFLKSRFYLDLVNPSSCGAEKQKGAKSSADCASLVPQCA
Method in brief: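 MLSMR compounds (23 nl, pin-transferred) preincubated 10 min at room temperature with a 500nM (2x) first reagent, then RGS4 at 900nM (2x) plus Transcreener GDP mix added; fluorescence polarization (620/688 nm) read before and after 90 min at 30 °C.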
For `S=C(c1ccc(-c2ccc(Cl)c(Cl)c2)o1)N1CCOCC1`, the Potency was inconclusive: 44.7 µM [inhibitor, partial curve, poor fit].
For `CCCCN(CC(=O)NC1CCCC1)C(=O)C(=O)Nc1ccc2c(c1)OCCO2`, the Potency was inconclusive: 70.8 µM [inhibitor, partial curve, poor fit].
`O=C(NCCN1CCOCC1)C(=O)NCC1OCCN1S(=O)(=O)c1ccccc1` (stereo unspecified) was tested, and the “activity change, negative = inhibition” value was inactive: -9.11%.
For `O=C(Nc1cccc(-c2nc3ncccc3o2)c1)c1ccc(-c2cccc(Cl)c2Cl)o1`, the Potency was inconclusive: 31.6 µM [inhibitor, partial curve, poor fit].
For `CN(Cc1nc(-c2ccccc2)no1)C(=O)c1ccc2c(c1)OCO2`, the “activity change, negative = inhibition” value was inactive: -6.8%.
For `COc1cc(/C=C(\CCC(=O)O)c2nc3ccccc3s2)ccc1OCC(=O)Nc1c(Cl)cccc1Cl`, the Potency was inconclusive: 44.7 µM [inhibitor, partial curve, poor fit].
`COc1cc(CNC(=O)CCCC(=O)c2ccccc2)cc(OC)c1OC` was tested, and the Potency was inconclusive: 31.6 µM [inhibitor, full curve, poor fit].
`O=C(OCC(=O)N1N=C(c2ccc(Cl)cc2)CC1c1ccco1)c1cccnc1` (stereo unspecified) was tested, and the Potency was inconclusive: 25.1 µM [inhibitor, full curve, poor fit].
With `Nc1nc(N)c(S(=O)(=O)c2ccccc2)c(Nc2ccc(Br)cc2)n1` the “activity change, negative = inhibition” value was inactive: 9.45%.
For `Brc1cccc(OCCCNC2CCCC2)c1`, the “activity change, negative = inhibition” value was inactive: -26.2%.
With `Cc1cc(C)c(C#N)c(Sc2ccc(N)cc2)n1` the Potency was inconclusive: 89.1 µM [inhibitor, single point].
In the case of `COC(=O)COc1cccc2c(=O)n(CC(=O)Nc3ccc4c(c3)OCCO4)ccc12`, the Potency is reported as inconclusive: 44.7 µM [inhibitor, partial curve, poor fit].
For `CN(C)S(=O)(=O)c1cccc(NC(=S)NC23CC4CC(CC(C4)C2)C3)c1`, the “activity change, negative = inhibition” value was inactive: 3.32%.
`CCc1ccc2nc(-c3cccc(C)c3)nc(SCC(=O)NCC3CCCO3)c2c1` (stereo unspecified) was tested, and the “activity change, negative = inhibition” value was inactive: 7.56%.
With `COc1ccccc1N1CSC2=C(C#N)C(c3ccc(SC)cc3)CC(=O)N2C1` (stereo unspecified) the Potency was inconclusive: 39.8 µM [inhibitor, partial curve, poor fit].
In the case of `COc1ccc(C2CC(=O)c3cc(-c4nc(-c5ccc(Cl)cc5)cs4)c(=O)[nH]c3C2)cc1` (stereo unspecified), the Potency is reported as inconclusive: 89.1 µM [inhibitor, single point].
With `O=C(NC(NNc1ccc([N+](=O)[O-])cc1)(C(F)(F)F)C(F)(F)F)c1ccccc1Cl` the Potency was inconclusive: 44.7 µM [inhibitor, partial curve, poor fit].
For `CC(O)c1nc2ccccc2n1CC(=O)N1CCN(c2ccccc2)CC1` (stereo unspecified), the “activity change, negative = inhibition” value was inactive: -28.8%.
With `O=[N+]([O-])c1cc(/C=N/n2c(-c3ccncc3)n[nH]c2=S)ccc1Cl` the Potency was inconclusive: 50.1 µM [inhibitor, partial curve, poor fit].
`CC(C)C(C(=O)Nc1nccs1)N1C(=O)c2ccccc2C1=O` (stereo unspecified) was tested, and the Potency was inconclusive: 79.4 µM [inhibitor, partial curve, poor fit].
`COCCCNC(=O)CC(NS(=O)(=O)c1ccc(Cl)cc1)c1ccco1` (stereo unspecified) was tested, and the “activity change, negative = inhibition” value was inactive: 53.7%.
In the case of `CCOC(=O)[C@H]1NN=C(C(=O)OC)[C@@H]1c1ccccc1`, the Potency is reported as inconclusive: 70.8 µM [inhibitor, single point].
For `Cc1ccc(S(=O)(=O)N(C)CC(=O)NCc2ccncc2)cc1`, the Potency was inconclusive: 89.1 µM [inhibitor, single point].
With `COc1ccc(NC(=O)C(=O)NCCN2CCN(C(=O)c3ccco3)CC2)cc1` the “activity change, negative = inhibition” value was inactive: 19.5%.
With `CCN(CC)c1ccc2nc3ccc(N)cc3[n+](-c3ccccc3)c2c1` the Potency was inconclusive: 79.4 µM [inhibitor, partial curve, poor fit].
`Cc1ccccc1C(=O)Nc1ccccc1C(=O)OCc1cc(=O)n2nc(C3CC3)sc2n1` was tested, and the “activity change, negative = inhibition” value was inactive: 7.34%.
With `CN(Cc1ccco1)c1ncnc2ccc(-c3ccc4c(ccn4C)c3)cc12` the “activity change, negative = inhibition” value was inactive: -15.8%.
In the case of `O=C(CSc1nnc(-c2ccco2)o1)N1CCN(c2ccccc2)CC1`, the Potency is reported as inconclusive: 79.4 µM [inhibitor, partial curve, poor fit].
With `NC(N)=NS(=O)(=O)c1ccc(NC(=S)NC(=O)c2sc3ccccc3c2Cl)cc1` the Potency was inconclusive: 100 µM [inhibitor, single point].
In the case of `C=CCNC(=S)NNC(=O)c1ccc(OCCC)cc1`, the Potency is reported as inconclusive: 79.4 µM [inhibitor, partial curve, poor fit].
`COCCn1c(-c2ccccc2)cnc1N` was tested, and the “activity change, negative = inhibition” value was inactive: 9.2%.
For `Cc1nc(-c2ccccc2)sc1-c1n[nH]c(=S)n1C`, the Potency was inconclusive: 89.1 µM [inhibitor, single point].
`CN1CCN(c2ccc([N+](=O)[O-])cc2NC(=O)c2cccs2)CC1` was tested, and the Potency was inconclusive: 79.4 µM [inhibitor, partial curve, poor fit].
With `CCSc1oc(-c2cccs2)nc1S(=O)(=O)c1ccccc1` the Potency was inconclusive: 50.1 µM [inhibitor, partial curve, poor fit].
With `Cc1cc(C)c2cc3c(N)c(C(=O)Nc4c(C)[nH]c(=O)[nH]c4=O)sc3nc2c1` the Potency was inconclusive: 20 µM [inhibitor, full curve, poor fit].
With `COC(=O)[C@@]12CCCCN1[C@H](c1ccc(-c3ccc4c(c3)OCO4)c(OC)c1)[C@@H]1C(=O)N(C)C(=O)[C@@H]12` the “activity change, negative = inhibition” value was inactive: -7.02%.
For `CC(C)C[C@@H](CN)NC(=O)c1nc[nH]c1C(=O)N[C@@H](C)C(=O)CNC[C@H](C)NC(=O)c1nc[nH]c1C(=O)N[C@@H](CC(C)C)C(=O)O`, the Potency was inconclusive: 89.1 µM [inhibitor, partial curve, poor fit].
`O=C(c1coc2ccc(O)cc12)C1CC1` was tested, and the “activity change, negative = inhibition” value was inactive: 11.8%.
In the case of `CCCCN(C(=O)C1CCCO1)c1c(N)n(CCC)c(=O)[nH]c1=O` (stereo unspecified), the Potency is reported as inconclusive: 89.1 µM [inhibitor, single point].
`CCOc1cc(C(=O)Nc2cc(C)ccn2)cc(OCC)c1OCC` was tested, and the “activity change, negative = inhibition” value was inactive: -12.8%.
For `CCS(=O)(=O)c1ncc(Cl)c(C(=O)N(Cc2ccccc2)Cc2ccco2)n1`, the Potency was inconclusive: 56.2 µM [inhibitor, partial curve, poor fit].
For `COc1cccc(C2Nc3cc(Cl)c(S(N)(=O)=O)cc3S(=O)(=O)N2)c1` (stereo unspecified), the Potency was inconclusive: 79.4 µM [inhibitor, partial curve, poor fit].
With `O=C(O)C1(Nc2ccc([N+](=O)[O-])cc2[N+](=O)[O-])CCCC1` the Potency was inconclusive: 79.4 µM [inhibitor, partial curve, poor fit].
In the case of `Cc1c(O)ccc2c(CC(=O)N[C@@H](Cc3ccccc3)C(=O)O)cc(=O)oc12`, the “activity change, negative = inhibition” value is reported as inactive: -9.42%.
With `CCOc1cc(NC(=S)NCCCN2CCOCC2)c(OCC)cc1NC(=O)c1cccs1` the “activity change, negative = inhibition” value was inactive: -4.17%.
In the case of `Cc1cc(C(=O)Nc2sccc2C#N)c2ccccc2n1`, the Potency is reported as inconclusive: 56.2 µM [inhibitor, partial curve, poor fit].
For `COc1ccc(Br)cc1CNc1ccc2[nH]c(=O)[nH]c2c1`, the Potency was inconclusive: 79.4 µM [inhibitor, partial curve, poor fit].
With `O=C(COc1ccc(Cl)cc1Br)N1CCN(S(=O)(=O)c2ccccc2)CC1` the Potency was inconclusive: 100 µM [inhibitor, single point].
For `O=C(CSc1ncnc2ccccc12)c1ccco1`, the Potency was inconclusive: 89.1 µM [inhibitor, single point].
In the case of `CCn1c(=O)cc(OCC(=O)NCc2ccc(F)cc2Cl)c2ccccc21`, the Potency is reported as inconclusive: 89.1 µM [inhibitor, partial curve, poor fit].
For `Cc1ccn2c(Nc3ccc4c(c3)OCO4)c(-c3ccco3)nc2c1`, the “activity change, negative = inhibition” value was inactive: 2.72%.
`COC(=O)c1ccc(N=Nc2ccccc2)cc1` was tested, and the “activity change, negative = inhibition” value was inactive: -8.09%.
With `COc1ccc(N2CCN(C(CNS(=O)(=O)c3c(C)cc(C)cc3C)c3ccco3)CC2)cc1` (stereo unspecified) the “activity change, negative = inhibition” value was inactive: 10.9%.
In the case of `N#CC1=C2SCN(Cc3ccco3)CN2C(=O)CC1c1c(F)cccc1Cl` (stereo unspecified), the Potency is reported as inconclusive: 17.8 µM [inhibitor, full curve, poor fit].
With `CCOC(=O)C1=C(Cc2ccc(Cl)cc2)C(=O)c2ccccc2C1=O` the Potency was inconclusive: 17.8 µM [inhibitor, full curve, poor fit].
For `CCOC(=O)C1=C(COc2ccccc2)NC(=O)NC1c1ccc(Br)cc1` (stereo unspecified), the “activity change, negative = inhibition” value was inactive: 5.15%.
In the case of `CNC(=S)N/N=C/c1c(C(=O)OC)cnn1-c1ccc(F)cc1F`, the Potency is reported as inconclusive: 100 µM [inhibitor, single point].
For `Cc1ccc(C(=O)N2CC(C)SC2=Nc2cccc(S(=O)(=O)N(C)C)c2)cc1` (stereo unspecified), the “activity change, negative = inhibition” value was inactive: 4.41%.
`O=C(NC(=S)Nc1cccc2c(O)cccc12)c1ccccc1[N+](=O)[O-]` was tested, and the Potency was inconclusive: 56.2 µM [inhibitor, partial curve, poor fit].
For `O=[N+]([O-])c1ccc(Sc2ncccn2)c([N+](=O)[O-])c1`, the “activity change, negative = inhibition” value was inactive: -15.2%.
`COc1ccc(-n2c(=O)c3c4c(sc3n3c(=S)[nH]nc23)CCC4)cc1` was tested, and the Potency was inconclusive: 39.8 µM [inhibitor, partial curve, poor fit].
For `CC(=O)c1ccc2noc(-c3ccc(C)cc3)c2c1`, the Potency was inconclusive: 50.1 µM [inhibitor, partial curve, poor fit].
In the case of `O=C(O)CCN1C(=O)c2ccc(NC(=O)CSc3ccccc3)cc2C1=O`, the Potency is reported as inconclusive: 89.1 µM [inhibitor, single point].
`Cc1ccc(-c2ccnc3nc(-n4cccc4)nn23)o1` was tested, and the Potency was inconclusive: 50.1 µM [inhibitor, partial curve, poor fit].
With `COc1ccc(/C=C/C(=O)c2ccc3c(c2)OCO3)cc1OC` the Potency was inconclusive: 50.1 µM [inhibitor, partial curve, poor fit].
In the case of `CCOc1ccccc1C1C(C#N)=C(N)SC(N)=C1C#N`, the Potency is reported as inconclusive: 79.4 µM [inhibitor, partial curve, poor fit].
